# Reference: PubChem BioAssay AID1159614 (National Center for Advancing Translational Sciences (NCATS), 2016)
# Screen size: about 45,000 compounds; about 65 (0.1%) were called active. Calls follow the shape of the dose curve; as a rule, active = well fitted activation curve with a large enough effect; inconclusive = small, poorly fitted or top-dose-only effect; inactive = no such curve, though single readings can be large or run the other way. The list shows a part of the results.
# Target: Galactocerebrosidase (Homo sapiens) (UniProt P54803)
# Sequence of UniProt P54803 (P54803 whole entry, looked up): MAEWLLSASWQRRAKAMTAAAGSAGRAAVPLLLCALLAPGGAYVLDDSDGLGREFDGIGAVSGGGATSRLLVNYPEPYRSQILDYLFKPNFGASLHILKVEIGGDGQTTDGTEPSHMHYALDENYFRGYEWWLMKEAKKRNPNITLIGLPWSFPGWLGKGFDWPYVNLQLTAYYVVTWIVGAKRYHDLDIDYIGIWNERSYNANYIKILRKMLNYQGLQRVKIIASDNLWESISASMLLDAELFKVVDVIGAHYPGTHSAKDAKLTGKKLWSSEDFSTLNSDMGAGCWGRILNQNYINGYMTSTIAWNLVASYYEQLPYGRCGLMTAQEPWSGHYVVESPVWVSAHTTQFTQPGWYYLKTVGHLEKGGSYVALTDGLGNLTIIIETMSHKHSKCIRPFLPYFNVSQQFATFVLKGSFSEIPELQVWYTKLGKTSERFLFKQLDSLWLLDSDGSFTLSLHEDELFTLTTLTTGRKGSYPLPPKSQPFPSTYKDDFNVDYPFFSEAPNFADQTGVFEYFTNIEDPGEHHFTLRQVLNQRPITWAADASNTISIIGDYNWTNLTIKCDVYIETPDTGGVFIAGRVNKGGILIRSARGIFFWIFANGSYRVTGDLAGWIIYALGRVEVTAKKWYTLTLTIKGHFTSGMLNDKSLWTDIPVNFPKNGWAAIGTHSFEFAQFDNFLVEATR
# Test: A Novel Cell-Based Assay to Identify Small Molecules for B -Galactocerebrosidase; also: 0% is about no effect; nearly all actives have a fitted effect of over 65% in size
# Settings: 145M-Twi-hGALC-G270D cells (Twitcher mouse brain line with human GALC G270D), HMU-beta-Gal fluorescence, 48 h; series mostly up to 57.5 µM; activation: at the top concentration
# Summary of the method: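 Mutant human GALC (G270D), stably expressed in a Twitcher mouse brain cell line lacking endogenous GALC, is measured in live-treated cells via 6-hexadecanoylamino-4-methylumbelliferyl-β-galactoside hydrolysis (0.1 mM final, pH 5.2) with fluorescent detection.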
Structure (SMILES),activation,Potency
COc1ccc(S(=O)(=O)N(CC(=O)Nc2cc(C)ccc2OC)Cc2ccccc2)cc1,inactive: -7.3%,
CCOc1ccccc1NS(=O)(=O)c1ccc2[nH]c3c(c2c1)CCCCC3,inactive: 12.4%,
COC(=O)c1ccc(NC(=O)CN2CCN(S(=O)(=O)c3ccc(Br)cc3)CC2)cc1,inactive: -9.82%,
Cc1ccc(Cn2c(=O)n(-c3ccc(C)cc3)c(=O)c3c2c2cc(C)ccc2n3C)cc1,inactive: -14.7%,
CCOc1cc(C2c3c(oc4cc(C)cc(C)c4c3=O)C(=O)N2CCO)ccc1O (configuration not stated),inactive: -13.8%,
N#C/C(=C\c1cccc(F)c1)c1nc(-c2cc3c(ccc4ccccc43)oc2=O)cs1,inactive: -10.6%,
Cc1ccc(NC(=O)Nc2ccc3nc(N4CCN(C)CC4)cc(C)c3c2)cc1F,inactive: -12%,
CSc1cccc(NC(=O)C2CCCN(C(=O)c3cnn(-c4ccc(F)cc4)c3-n3cccc3)C2)c1 (configuration not stated),inactive: -5.48%,
CCCN(CCC)CCCNC(=O)C1CCN(c2nc3ccc(CC)cc3s2)CC1,inactive: -16%,
O=C(CSc1cn(CC(=O)N2CCCCC2)c2ccccc12)NCc1ccc(F)cc1,inactive: 2.93%,
C[C@@H]1CC(=O)NN=C1c1ccc(NN=C(C#N)C#N)cc1,,inactive
COc1ccc(N2CCN(S(=O)(=O)CCNC(=O)c3cc(=O)c4ccccc4o3)CC2)cc1,inactive: -17.5%,
CN(C)c1oc(-c2ccc(COc3ccccc3)o2)nc1C#N,inactive: -20.4%,
COc1cc(NC(=O)Cn2ccn(-c3cc(C)cc(C)c3)c(=O)c2=O)cc(OC)c1,inactive: -11.2%,
Cc1cc(C)cc(NC(=O)CSc2nc(=O)[nH]c3c2CCC3)c1,inactive: -5.77%,
CC(C)CN(CCNC(=O)c1cn(C)c2ccc(S(=O)(=O)N3CCCCCC3)cc2c1=O)CC(C)C,inactive: -13.9%,
CC(C)(C)c1ccc(Oc2nc3ccccn3c(=O)c2/C=C(\C#N)c2nc3ccccc3s2)cc1,inactive: -18.1%,
CCc1ccc(NC(=O)CC2C(=O)N(c3ccc(C)cc3)C(=O)N2C2CCCC2)cc1 (configuration not stated),inactive: -34.2%,
COc1ccc2c(c1)CCc1sc(NC(=O)c3ccc(Br)cc3)nc1-2,inactive: -2.83%,
CS(=O)(=O)c1cccc(-c2nnc(NC(=O)c3ccc4c(c3)OCCO4)o2)c1,inactive: -10.2%,
Cc1ccc(NC(=O)C(Cc2ccccc2)NS(=O)(=O)c2ccc3c(c2)CCC(=O)N3)cc1 (configuration not stated),inactive: -8.42%,

Structure (SMILES),activation,Potency
Cc1cc(C)cc(NC(=O)CSc2nc3ncccc3[nH]2)c1,inactive: -10.3%,
Cc1ccc(NC(=O)C(=O)NCC(c2ccc3c(c2)OCO3)N2CCN(C)CC2)c(C)c1 (configuration not stated),inactive: -10.1%,
CC(=O)Nc1cccc(Nc2nc3ccccc3n3c(C)nnc23)c1,inactive: -11.5%,
CCOC(=O)N1CCC(NC(=O)c2cnn(-c3ccc(C)cc3C)c2C2CCN(C(=O)OC(C)(C)C)CC2)CC1,inactive: -7.35%,
CCc1nn(CCCC(=O)NCc2ccc(C)cc2)c(=O)c2cc3occc3n12,inactive: -5.8%,
CC(=O)c1nn(-c2ccc(OC(F)(F)F)cc2)nc1Nc1ccccc1,inactive: -9.99%,
CCCN(CCC)CCCNC(=O)Cn1ncc2c3ccccc3n(Cc3ccccc3F)c2c1=O,inactive: -7.13%,
CCOc1ccccc1N(C)C(=O)Cn1nc(Cc2ccncc2)c2ccccc2c1=O,inactive: 5.7%,
O=C(CN1CCCN(Cc2ccc(F)cc2)S1(=O)=O)Nc1ccc2c(c1)OCCO2,inactive: -8.87%,
CCOc1ccc(-c2cc(NC(=O)Nc3ccc(Cl)cc3)c(C(=O)OC)s2)cc1,inactive: -15.3%,
CCCSc1ncc(Cl)c(C(=O)N(Cc2cccc(Cl)c2)C2CCS(=O)(=O)C2)n1 (configuration not stated),inactive: -9.34%,
COc1ccc(OC)c(NC(=O)c2cnc(N3CCCCC3)c3ccccc23)c1,inactive: -10.6%,
CCOC(=O)c1c(NC(=O)CCCOc2ccc(C(C)(C)C)cc2)sc2c1CCCC2,inactive: -12.8%,
COc1ccccc1C(=O)OCc1cc(=O)n2nc(-c3cccs3)sc2n1,inactive: -12.1%,
COC(=O)c1ccc(NS(=O)(=O)c2ccc3[nH]c4c(c3c2)CCCC4)cc1,inactive: -45.5%,
CCC(=O)N1CCc2cc(S(=O)(=O)NCCC(=O)NCc3ccc(C)cc3)ccc21,inactive: -11.5%,
Cc1cccc(C(c2sc3nc(-c4ccco4)nn3c2O)N2CCN(c3ccccc3F)CC2)c1 (configuration not stated),inactive: 4.75%,
CCOC(=O)C1CCCN(S(=O)(=O)c2cc(Br)cc3c2N(C(C)=O)CC3)C1 (configuration not stated),inactive: 2.03%,
CN(C)c1ccc(-c2nc(-c3cccs3)c(-c3cccs3)[nH]2)cc1,inactive: -9.71%,
CN1CCN(CCCN2c3ccccc3Sc3ccc(S(=O)(=O)N(C)C)cc32)CC1,inactive: -16.9%,
COc1cccc(CNC(=O)CCCn2ncn3c(cc4occc43)c2=O)c1,inactive: 5.76%,

Structure (SMILES),activation,Potency
CCCn1c(SCC(O)c2ccccc2)nc2ccccc21 (configuration not stated),inactive: -9.03%,
Cc1nn(-c2ccccc2)c2sc(C(=O)Nc3ccc(Br)cc3)cc12,inactive: -13.9%,
O=C1COc2ccc(-c3cc(-c4ccccc4)c4c(n3)-c3ccccc3OC4)cc2N1,inactive: -17.3%,
COc1ccc(-c2cc3c(=O)n(CC(=O)Nc4cc(F)ccc4F)ccn3n2)cc1OC,inactive: -13.1%,
CCc1ccc(NC(=O)[C@H](CSCc2ccccc2)N2Cc3ccccc3C2=O)cc1,inactive: -4.96%,
O=C(NCCc1ccc(Cl)cc1)c1ccc2c(c1)N(Cc1ccc(F)cc1)C(=O)CS2,inactive: -4.51%,
O=C(Oc1ccc(F)cc1)c1nc(SCc2ccc(F)cc2)ncc1Cl,inactive: -11.9%,
COc1ccc(NC(=O)CCS(=O)(=O)c2ccc3c(c2)oc(=O)n3C)cc1OC,inactive: -18.5%,
CCCCN(Cc1cc2ccccc2[nH]c1=O)C(=O)c1cccc(Cl)c1,inactive: -1.21%,
COC(=O)c1sc(-c2ccccc2)cc1NC(=O)Nc1ccc(Cl)cc1,inactive: -16.2%,
CC1=C(C(=O)NCc2ccccc2C)C2(CCCCCC2)OC1=O,inactive: 1.21%,
O=c1[nH]c(=O)n([C@H]2CCCO2)cc1F,inactive: -16.5%,
Cc1ccc(-c2noc(-c3ccccc3NC(=O)C3CC(=O)N(c4ccc(C)cc4)C3)n2)cc1 (configuration not stated),inactive: -21.8%,
Cc1ccc(C(=O)NCC(c2ccco2)S(=O)(=O)c2cccs2)cc1C (configuration not stated),inactive: -18%,
COc1cc2nc(Nc3cccc(C)c3)nc(N)c2cc1OC,inactive: -12%,
COc1ccc(NC(=O)CCS(=O)(=O)c2ccc3nc(C)sc3c2)cc1Cl,inactive: -11.5%,
Cc1ccc(-n2ncc(C(=O)NCCc3c[nH]c4ccccc34)c2C2CCN(C(=O)OC(C)(C)C)CC2)cc1C,inactive: -26%,
COc1ccc(NC(=O)C(Cc2ccccc2)n2cccc2)cc1OC (configuration not stated),inactive: -16.9%,
COc1cc(-c2noc(CCC(=O)Nc3cc(C)ccc3C)n2)cc(OC)c1OC,inactive: -6.81%,
Cc1ccccc1Cn1c2ccccc2c2cnn(CC(=O)NCCc3ccccc3)c(=O)c21,inactive: -7.32%,
